In the supplement of paper PMC8728848:
The list shows a part of the results.

Experiments:
Test in all cases: glycan array binding signal (z-score within array); higher = stronger binding
Conditions in all cases: glycan notation: IUPAC condensed, linker removed; mutation: R85A
[1] = molecular target: Fuc(a1-3)[Gal3S(b1-4)]GlcNAc
Method in brief: (§1)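 The binding signal is a Z-score computed within each array. Data were drawn from 3228 arrays in the Consortium for Functional Glycomics database, restricted to those with a known protein sequence. Scores were averaged over arrays of the same protein sequence at different concentrations or buffers, and over linkers, and negative values can be taken as non-binding.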

[2] = molecular target: Fuc(a1-3)[Gal3S(b1-4)]GlcNAc6S
Method in brief: as §1

[3] = molecular target: Fuc(a1-3)[GalNAc(b1-4)]GlcNAc
Method in brief: as §1

Fuc(a1-4)GlcNAc = molecular target: Fuc(a1-4)GlcNAc
Method in brief: as §1

Fuc(b1-3)GlcNAc = molecular target: Fuc(b1-3)GlcNAc
Method in brief: as §1

Gal(a1-2)Gal = molecular target: Gal(a1-2)Gal
Method in brief: as §1

Gal(a1-3)Gal = molecular target: Gal(a1-3)Gal
Method in brief: as §1

Gal(a1-3)Gal(b1-3)GlcNAc = molecular target: Gal(a1-3)Gal(b1-3)GlcNAc
Method in brief: as §1

[4] = molecular target: Gal(a1-3)Gal(b1-3)GlcNAc(b1-2)Man(a1-3)[Gal(a1-3)Gal(b1-3)GlcNAc(b1-2)Man(a1-6)]Man(b1-4)GlcNAc(b1-4)GlcNAc
Method in brief: as §1

[5] = molecular target: Gal(a1-3)Gal(b1-3)[Fuc(a1-4)]GlcNAc(b1-2)Man(a1-3)[Gal(a1-3)Gal(b1-3)[Fuc(a1-4)]GlcNAc(b1-2)Man(a1-6)]Man(b1-4)GlcNAc(b1-4)GlcNAc
Method in brief: as §1

Gal(a1-3)Gal(b1-4)Glc = molecular target: Gal(a1-3)Gal(b1-4)Glc
Method in brief: as §1

Gal(a1-3)Gal(b1-4)GlcNAc = molecular target: Gal(a1-3)Gal(b1-4)GlcNAc
Method in brief: as §1

[6] = molecular target: Gal(a1-3)Gal(b1-4)GlcNAc(b1-3)GalNAc
Method in brief: as §1

[7] = molecular target: Gal(a1-3)Gal(b1-4)[Fuc(a1-3)]GlcNAc
Method in brief: as §1

[8] = molecular target: Gal(a1-3)Gal(b1-4)[Fuc(a1-3)]GlcNAc(b1-2)Man(a1-3)[Gal(a1-3)Gal(b1-4)[Fuc(a1-3)]GlcNAc(b1-2)Man(a1-6)]Man(b1-4)GlcNAc(b1-4)GlcNAc
Method in brief: as §1

Gal(a1-3)GalNAc = molecular target: Gal(a1-3)GalNAc
Method in brief: as §1

[9] = molecular target: Gal(a1-3)[Gal(a1-4)]Gal(b1-4)GlcNAc
Method in brief: as §1

[10] = molecular target: Gal(a1-4)Gal(b1-3)GlcNAc(b1-2)Man(a1-3)[Gal(a1-4)Gal(b1-3)GlcNAc(b1-2)Man(a1-6)]Man(b1-4)GlcNAc(b1-4)GlcNAc
Method in brief: as §1

Gal(a1-4)Gal(b1-4)Glc = molecular target: Gal(a1-4)Gal(b1-4)Glc
Method in brief: as §1

Gal(a1-4)Gal(b1-4)GlcNAc = molecular target: Gal(a1-4)Gal(b1-4)GlcNAc
Method in brief: as §1

[11] = molecular target: Gal(a1-4)Gal(b1-4)GlcNAc(b1-2)Man(a1-3)[Gal(a1-4)Gal(b1-4)GlcNAc(b1-2)Man(a1-6)]Man(b1-4)GlcNAc(b1-4)GlcNAc
Method in brief: as §1

[12] = molecular target: Gal(a1-4)Gal(b1-4)GlcNAc(b1-3)Gal(b1-4)Glc
Method in brief: as §1

Gal(a1-4)GlcNAc = molecular target: Gal(a1-4)GlcNAc
Method in brief: as §1

Gal(a1-6)Glc = molecular target: Gal(a1-6)Glc
Method in brief: as §1

Gal(b1-2)Gal = molecular target: Gal(b1-2)Gal
Method in brief: as §1

Gal(b1-3)Gal = molecular target: Gal(b1-3)Gal
Method in brief: as §1

Gal(b1-3)Gal(b1-4)GlcNAc = molecular target: Gal(b1-3)Gal(b1-4)GlcNAc
Method in brief: as §1

[13] = molecular target: Gal(b1-3)Gal(b1-4)GlcNAc(b1-2)Man(a1-3)[Gal(b1-3)Gal(b1-4)GlcNAc(b1-2)Man(a1-6)]Man(b1-4)GlcNAc(b1-4)GlcNAc
Method in brief: as §1

Gal(b1-3)GalNAc = molecular target: Gal(b1-3)GalNAc
Method in brief: as §1

[14] = molecular target: Gal(b1-3)GalNAc(a1-3)[Fuc(a1-2)]Gal(b1-4)Glc
Method in brief: as §1

[15] = molecular target: Gal(b1-3)GalNAc(a1-3)[Fuc(a1-2)]Gal(b1-4)GlcNAc
Method in brief: as §1

[16] = molecular target: Gal(b1-3)GalNAc(b1-3)Gal(a1-4)Gal(b1-4)Glc
Method in brief: as §1

[17] = molecular target: Gal(b1-3)GalNAc(b1-4)Gal(b1-4)Glc
Method in brief: as §1

[18] = molecular target: Gal(b1-3)GalNAc(b1-4)[Neu5Ac(a2-3)]Gal(b1-4)Glc
Method in brief: as §1

Gal(b1-3)GlcNAc = molecular target: Gal(b1-3)GlcNAc
Method in brief: as §1

[19] = molecular target: Gal(b1-3)GlcNAc(a1-6)Gal(b1-4)GlcNAc
Method in brief: as §1

[20] = molecular target: Gal(b1-3)GlcNAc(b1-2)Man(a1-3)[Gal(b1-3)GlcNAc(b1-2)Man(a1-6)]Man(b1-4)GlcNAc(b1-4)GlcNAc
Method in brief: as §1

[21] = molecular target: Gal(b1-3)GlcNAc(b1-2)Man(a1-3)[Gal(b1-3)GlcNAc(b1-2)Man(a1-6)]Man(b1-4)GlcNAc(b1-4)[Fuc(a1-6)]GlcNAc
Method in brief: as §1

[22] = molecular target: Gal(b1-3)GlcNAc(b1-3)Gal(b1-3)GlcNAc
Method in brief: as §1

[23] = molecular target: Gal(b1-3)GlcNAc(b1-3)Gal(b1-4)Glc
Method in brief: as §1

[24] = molecular target: Gal(b1-3)GlcNAc(b1-3)Gal(b1-4)GlcNAc
Method in brief: as §1

[25] = molecular target: Gal(b1-3)GlcNAc(b1-3)Gal(b1-4)GlcNAc(b1-6)[Gal(b1-3)GlcNAc(b1-3)]Gal(b1-4)Glc
Method in brief: as §1

[26] = molecular target: Gal(b1-3)GlcNAc(b1-3)Gal(b1-4)[Fuc(a1-3)]GlcNAc(b1-6)[Gal(b1-3)GlcNAc(b1-3)]Gal(b1-4)Glc
Method in brief: as §1

[27] = molecular target: Gal(b1-3)GlcNAc(b1-3)GalNAc
Method in brief: as §1

[28] = molecular target: Gal(b1-3)GlcNAc(b1-6)Gal(b1-4)GlcNAc
Method in brief: as §1

[29] = molecular target: Gal(b1-3)[Fuc(a1-4)]GlcNAc
Method in brief: as §1

[30] = molecular target: Gal(b1-3)[Fuc(a1-4)]GlcNAc(b1-2)Man(a1-3)[Gal(b1-3)[Fuc(a1-4)]GlcNAc(b1-2)Man(a1-6)]Man(b1-4)GlcNAc(b1-4)GlcNAc
Method in brief: as §1

[31] = molecular target: Gal(b1-3)[Fuc(a1-4)]GlcNAc(b1-2)Man(a1-3)[Gal(b1-3)[Fuc(a1-4)]GlcNAc(b1-2)Man(a1-6)]Man(b1-4)GlcNAc(b1-4)[Fuc(a1-6)]GlcNAc
Method in brief: as §1

[32] = molecular target: Gal(b1-3)[Fuc(a1-4)]GlcNAc(b1-3)Gal(b1-3)[Fuc(a1-4)]GlcNAc
Method in brief: as §1

[33] = molecular target: Gal(b1-3)[Fuc(a1-4)]GlcNAc(b1-3)Gal(b1-4)GlcNAc
Method in brief: as §1

[34] = molecular target: Gal(b1-3)[Fuc(a1-4)]GlcNAc(b1-3)Gal(b1-4)[Fuc(a1-3)]GlcNAc
Method in brief: as §1

[35] = molecular target: Gal(b1-3)[GlcNAc(b1-6)]GalNAc
Method in brief: as §1

[36] = molecular target: Gal(b1-3)[Neu5Ac(a2-6)]GalNAc
Method in brief: as §1

[37] = molecular target: Gal(b1-3)[Neu5Ac(a2-6)]GlcNAc(b1-6)Gal(b1-4)Glc
Method in brief: as §1

[38] = molecular target: Gal(b1-3)[Neu5Ac(b2-6)]GalNAc
Method in brief: as §1

[39] = molecular target: Gal(b1-4)GalNAc(a1-3)[Fuc(a1-2)]Gal(b1-4)GlcNAc
Method in brief: as §1

[40] = molecular target: Gal(b1-4)GalNAc(b1-3)[Fuc(a1-2)]Gal(b1-4)GlcNAc
Method in brief: as §1

Gal(b1-4)Glc = molecular target: Gal(b1-4)Glc
Method in brief: as §1

Gal(b1-4)Glc6S = molecular target: Gal(b1-4)Glc6S
Method in brief: as §1

Gal(b1-4)GlcNAc = molecular target: Gal(b1-4)GlcNAc
Method in brief: as §1

B1: rAAL (Agrocybe aegerita), Q6WY08 (protein)
chain: MQGVNIYNISAGTSVDLAAPVTTGDIVTFFSSALNLNAGAGNPNNTTLNLFAENGAYLLHIAFRLQENVIIFNSRQPDGPWLVEQAVSDVANQFAGIDGKAMVTVFDHGDKYQVVINEKTVIQYTKQISGLTLSLSYNATEETSIFSTVVEAVTYTGLALEHHHHHH
glycan array binding signal (z-score) [1]: -0.127
glycan array binding signal (z-score) [2]: -0.11
glycan array binding signal (z-score) [3]: -0.103
glycan array binding signal (z-score) (Fuc(a1-4)GlcNAc): -0.139
glycan array binding signal (z-score) (Fuc(b1-3)GlcNAc): -0.12
glycan array binding signal (z-score) (Gal(a1-2)Gal): -0.129
glycan array binding signal (z-score) (Gal(a1-3)Gal): -0.124
glycan array binding signal (z-score) (Gal(a1-3)Gal(b1-3)GlcNAc): 0.619
glycan array binding signal (z-score) [4]: -0.088
glycan array binding signal (z-score) [5]: -0.111
glycan array binding signal (z-score) (Gal(a1-3)Gal(b1-4)Glc): 1.02
glycan array binding signal (z-score) (Gal(a1-3)Gal(b1-4)GlcNAc): -0.051
glycan array binding signal (z-score) [6]: -0.115
glycan array binding signal (z-score) [7]: -0.115
glycan array binding signal (z-score) [8]: -0.125
glycan array binding signal (z-score) (Gal(a1-3)GalNAc): -0.134
glycan array binding signal (z-score) [9]: -0.131
glycan array binding signal (z-score) [10]: -0.118
glycan array binding signal (z-score) (Gal(a1-4)Gal(b1-4)Glc): -0.133
glycan array binding signal (z-score) (Gal(a1-4)Gal(b1-4)GlcNAc): -0.142
glycan array binding signal (z-score) [11]: -0.144
glycan array binding signal (z-score) [12]: -0.129
glycan array binding signal (z-score) (Gal(a1-4)GlcNAc): -0.142
glycan array binding signal (z-score) (Gal(a1-6)Glc): -0.142
glycan array binding signal (z-score) (Gal(b1-2)Gal): -0.124
glycan array binding signal (z-score) (Gal(b1-3)Gal): -0.141
glycan array binding signal (z-score) (Gal(b1-3)Gal(b1-4)GlcNAc): -0.067
glycan array binding signal (z-score) [13]: 9.2
glycan array binding signal (z-score) (Gal(b1-3)GalNAc): -0.119
glycan array binding signal (z-score) [14]: -0.142
glycan array binding signal (z-score) [15]: -0.113
glycan array binding signal (z-score) [16]: -0.103
glycan array binding signal (z-score) [17]: -0.123
glycan array binding signal (z-score) [18]: -0.126
glycan array binding signal (z-score) (Gal(b1-3)GlcNAc): -0.115
glycan array binding signal (z-score) [19]: -0.133
glycan array binding signal (z-score) [20]: -0.072
glycan array binding signal (z-score) [21]: -0.109
glycan array binding signal (z-score) [22]: -0.052
glycan array binding signal (z-score) [23]: 0.01
glycan array binding signal (z-score) [24]: -0.117
glycan array binding signal (z-score) [25]: 0.051
glycan array binding signal (z-score) [26]: -0.052
glycan array binding signal (z-score) [27]: -0.086
glycan array binding signal (z-score) [28]: -0.106
glycan array binding signal (z-score) [29]: -0.134
glycan array binding signal (z-score) [30]: 0.056
glycan array binding signal (z-score) [31]: -0.11
glycan array binding signal (z-score) [32]: -0.129
glycan array binding signal (z-score) [33]: -0.112
glycan array binding signal (z-score) [34]: -0.114
glycan array binding signal (z-score) [35]: -0.113
glycan array binding signal (z-score) [36]: -0.134
glycan array binding signal (z-score) [37]: -0.13
glycan array binding signal (z-score) [38]: -0.13
glycan array binding signal (z-score) [39]: -0.115
glycan array binding signal (z-score) [40]: -0.135
glycan array binding signal (z-score) (Gal(b1-4)Glc): -0.117
glycan array binding signal (z-score) (Gal(b1-4)Glc6S): -0.099
glycan array binding signal (z-score) (Gal(b1-4)GlcNAc): -0.13
